# Reference: the RNAGym collection of RNA variant scans (doi:10.7554/elife.90254)
# Read counts are not given, so values of variants with three or more changes are uncertain.
# B1: LINE1-mini (parent)
# chain: GGCAGAGCUCAACACAGCGUGGCAAAGUGGCUGUGGCUAGACUGCC
# Variants of: B1
# Assay: self-cleavage, relative activity (ratio to wild type); higher = more cleavage; in vitro, sequencing; the parent is a self-cleaving ribozyme
row,Variant,self-cleavage
1,G17A G19U U28G,0.51
2,G17A G21A A41U,0.07
3,G17A G21C A25C G27A G33A,0.17
4,G17A G21C G22C C31G,0.04
5,G17A G21C G27A A39U,1.28
6,G17A G21C U34G C37A,0.02
7,G17A G21U A26C,0.18
8,G17A G21U G30C G44C,0.03
9,G17A G21U G33C,0.1
10,G17A G21U G44A,0.03
11,G17A G22A A24C A26G G30A G44A,0.01
12,G17A G22A C31A A39G,0.02
13,G17A G22A G30A C42U U43G,0.03
14,G17A G22A G40C,0.03
15,G17A G22A U38C,0.67
16,G17A G22C G27C,0.04
17,G17A G22C U43A,0.06
18,G17A G22U C37U,0.04
19,G17A G22U U32A,0.1
20,G17A G27A G40U G44A,0.05
21,G17A G27A U28C G40U A41U,0.01

row,Variant,self-cleavage
1,G17A G27C U34C C37A,0.01
2,G17A G27C U38C G40C,0.06
3,G17A G27U A41U,0.01
4,G17A G27U G35C C42U,0.03
5,G17A G27U U28G C45A,0.07
6,G17A G29C U32C,0.03
7,G17A G29U U34C,0.01
8,G17A G30C C46G,0.86
9,G17A G30C U32A,0.3
10,G17A G30C U32G,0.22
11,G17A G35A C42U,0.14
12,G17A G44C C45U,0.04
13,G17A U20A A25G U32C U43C C45A,0.01
14,G17A U20A U43G,0.03
15,G17A U20C C23U G35C,0.03
16,G17A U20C G36U,0.02
17,G17A U20G A41C G44A,0.03
18,G17A U20G G30C,0.03
19,G17A U28A C31U A39C,0.03
20,G17A U28A C46A,0.15
21,G17A U28A G30U G33C G36A C42G,0.01

row,Variant,self-cleavage
1,G17A U32A G33C,0.01
2,G17A U34A C46U,0
3,G17A U34A G40A,0.01
4,G17A U34G C45G,0.03
5,G17C A24G A39G,0.09
6,G17C A24G C31U G35A G40A,0.01
7,G17C A24G U43C C46G,0.01
8,G17C A24U A41G,0.06
9,G17C A25C G27A G33C C37A,0.05
10,G17C A25C U34G,0.03
11,G17C A25U U34C,0.04
12,G17C A26G C31A G40A,0.02
13,G17C A26U G30C G40A,0.1
14,G17C A41C U43A,0
15,G17C A41G C45G,0.05
16,G17C C18A A41U C42A,0.05
17,G17C C18A C45G,0.05
18,G17C C18A G19U C31A C37G,0.01
19,G17C C18A G27U G30C G35C C37U,0.07
20,G17C C18A G27U U32C G36A G40U C42G,0.03
21,G17C C18G G29U,0.03

row,Variant,self-cleavage
1,G17C C23A C31A,0.28
2,G17C C23A G27A,1.42
3,G17C C23G G27A,0.16
4,G17C C23U A39U,0.56
5,G17C C23U C37A,0.06
6,G17C C23U G29U G33U A41U,0.02
7,G17C C23U U38C,0.05
8,G17C C31A U32A,0.37
9,G17C C31G G35C,0.04
10,G17C C37A C45U C46A,0.06
11,G17C C42U G44A,0.09
12,G17C G19A C23U A25U,0.41
13,G17C G19A C42U,0.16
14,G17C G19A U38A,0.34
15,G17C G19U G21A,0.11
16,G17C G19U G30U,0.12
17,G17C G21C C23G A26G U38A,0.39
18,G17C G21C G30A U32G G33U,0.01
19,G17C G21C U28C,0.2
20,G17C G21U C46U,0.51
21,G17C G21U U38C,0.2
